The results in this text go back to PubChem BioAssay AID485344 (National Center for Advancing Translational Sciences (NCATS), 2010).

One may read the inhibition as the drop in the measured response relative to a control, in per cent.

SMILES strings stand for the structures. About 6,900 (2%) of roughly 340,000 compounds were called active. Rule as the data show it: active = inhibition above about 30%; inactive = below that, where a call was filed. The list shows a part of the results, in another mix than the full data. Where no call is shown, the source filed none.

The target of this assay is D(2) dopamine receptor (Homo sapiens) (UniProt P14416). As to the kind of experiment: HTS Assay for Allosteric Antagonists of the Human D2 Dopamine Receptor: Primary Screen for Antagonists. Also: 0% is about no effect. The conditions noted are these: HEK293 TREx D2 cells, calcium flux, dopamine EC80; at 10 µM; stronger effect = higher value. In outline: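 Overnight-induced (tetracycline, 30 C) HEK293 T-REx cells carrying force-coupled D2 receive a no-wash calcium dye, then compound, then EC80 dopamine at 180 s; signals are read kinetically throughout.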
Chain of UniProt P14416 (P14416 whole entry, looked up): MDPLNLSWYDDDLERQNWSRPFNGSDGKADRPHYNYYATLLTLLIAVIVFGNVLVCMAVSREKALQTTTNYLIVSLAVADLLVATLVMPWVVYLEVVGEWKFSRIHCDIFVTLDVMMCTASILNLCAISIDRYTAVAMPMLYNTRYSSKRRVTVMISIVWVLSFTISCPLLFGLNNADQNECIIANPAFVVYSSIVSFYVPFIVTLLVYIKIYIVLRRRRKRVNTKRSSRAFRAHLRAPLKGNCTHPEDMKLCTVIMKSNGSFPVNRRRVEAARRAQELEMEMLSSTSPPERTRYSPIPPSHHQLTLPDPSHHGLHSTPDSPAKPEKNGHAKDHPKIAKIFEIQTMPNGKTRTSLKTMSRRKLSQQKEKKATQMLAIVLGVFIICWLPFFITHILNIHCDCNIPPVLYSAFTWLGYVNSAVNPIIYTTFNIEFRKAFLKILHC
For orientation: Calcium assays in cells follow changes in intracellular calcium, usually with a dye or a luminescent sensor.
Regarding `COc1ccccc1N1CCN(C(=O)Cn2ncc3c(=O)oc4ccc(C)cc4c32)CC1`, the inhibition was 15.9%.

Turning to `C=C(C)c1cccc(C(C)(C)NC(=O)NCc2ccncc2)c1`, the inhibition is active: 34.5%.

For `CN(C)S(=O)(=O)c1ccc(C(=O)Nc2ccc(-n3nncc3-c3ccccc3)cc2)cc1`, the inhibition is 12.9%.

Regarding `COc1ccccc1NS(=O)(=O)c1cc2c(cc1Cl)NC(=O)CO2`, the inhibition is -6.02%.

For `O=C1CN(C(=O)Nc2ccccc2C(F)(F)F)C(c2ccccc2)c2c(sc3c2CCCC3)N1` (stereo not drawn), the inhibition was determined as 23%.

`CCOc1ccc(CCNC(=O)CSc2cc(=O)n(C)c3ccc(Cl)cc23)cc1OCC`: the inhibition is -17%.

As for `OC1(Cc2cc(-c3ccccc3)no2)CCN(CCCc2ccccc2)CC1`, the inhibition is active: 73.1%.

For `COc1ccc(-c2nc(SCC(=O)Nc3ccc4c(c3)OCCO4)c(-c3ccccc3)[nH]2)cc1`, the inhibition came to 20.8%.

Consider `CCc1ccc(NC(=O)Cn2c(=O)n(-c3cc(C)cc(C)c3)c(=O)c3oc4ccccc4c32)cc1`, for which the inhibition was -0.631%.

As for `COC(=O)c1ccccc1NC(=O)C1=C(C)C(=O)OC12CCC(C)CC2` (stereo not drawn), the inhibition worked out at 9.61%.

`Cc1ccc(CSc2oc(-c3cccs3)nc2S(=O)(=O)c2ccc(C)cc2)cc1`: the inhibition worked out at 21.6%.

Consider `COC(=O)CC1Oc2ccc(C)cc2-n2cc(-c3ccc(C)cc3)nc21` (stereo not drawn), for which the inhibition worked out at 0.729%.

Take `CC(C)CC(=O)Nc1nnc(S(=O)(=O)N2CCc3ccccc32)s1`: the inhibition worked out at 13.4%.

As for `Cc1ccc(-n2nc3c(=O)n(CCCC(=O)NC(C)c4ccccc4)nc(C)c3c2C)cc1` (stereo not drawn), the inhibition was -6.66%.

In the case of `CCOC(=O)/C(C#N)=C/c1ccc(-c2ccc(C)cc2)o1`, the inhibition is -1.68%.

Consider `CCCN(CCC)C(=O)Cn1c(=O)n(Cc2ccc(C(=O)NCCc3ccc(Cl)cc3)cc2)c(=O)c2ccccc21`, for which the inhibition is 16.8%.

As for `COc1ccccc1Cn1cc(C(=O)c2ccc(C)cc2)c(=O)c2cc(F)cc(F)c21`, the inhibition came to 8.25%.

For the molecule `COc1ccc(OC)c(-c2noc(N3CCN(c4cccc(C)c4C)CC3)n2)c1`, the inhibition is -8.14%.

For `COc1cccc(CN(C(=O)c2cccc(C)c2)C2CCS(=O)(=O)C2)c1` (stereo not drawn), the inhibition was 0.661%.

Turning to `CC(=O)c1ccc(NC(=O)Cn2nc(C(F)(F)F)c3c2CCCC3)cc1`, the inhibition came to 4.35%.

For `COc1cc2[nH]c(=O)n(Cc3ccc(C(=O)NC4CCN(Cc5ccccc5)CC4)cc3)c(=O)c2cc1OC`, the inhibition is active: 90.8%.

As for `CCSc1nn(CC(=O)Nc2cccc(Cl)c2)c(N)c1S(=O)(=O)c1ccc(OC)cc1`, the inhibition was -5.27%.

Consider `Cc1ccc2occ(C(=O)c3ccco3)c(=O)c2c1`, for which the inhibition was active: 38.5%.

On to `COc1ccc(NC(=O)C(=O)NCc2ccco2)cc1`, for which the inhibition amounted to 5.01%.

With `CCN(CCCNC(=O)Cn1ncc2c([nH]c3ccc(C)cc32)c1=O)Cc1ccccc1`, the inhibition is 3.64%.

For `CC(C)n1c(=N)c(C(=O)NC2CCCCC2)cc2c(=O)n3ccccc3nc21`, the inhibition is 1.22%.

As to `Clc1cccc(CSc2nnc(C3CCNCC3)o2)c1`, the inhibition is -8.66%.

Consider `COc1ccc(OCC(O)CN2CCN(c3ncccn3)CC2)cc1` (stereo not drawn), for which the inhibition is active: 62.2%.

In the case of `Cc1ccc(C)c(OCCN2C(=O)NC3(CCc4ccccc4C3)C2=O)c1` (stereo not drawn), the inhibition is active: 33%.

Consider `CCc1cccc(NC(=O)Cn2nc3c4cc(F)ccc4n(Cc4cccc(C)c4)cc-3c2=O)c1`, for which the inhibition was 5.86%.

`CC(C)Oc1ccc(C(=O)Nc2nonc2-c2ccc(OC(C)C)cc2)cc1`: the inhibition was 3.88%.

For `COC(=O)CCN(C(=O)C1CCN(S(=O)(=O)c2c(C)noc2/C=C/c2ccccc2F)CC1)c1ccccc1`, the inhibition worked out at 10.4%.

Regarding `CCCNC(=O)c1cnc2c(-c3ccc(OCC)c(OCC)c3)c(C)nn2c1-c1ccccc1`, the inhibition was -7.92%.

For the molecule `COc1cc(NC(=O)CC(c2cccs2)N2Cc3ccccc3C2=O)cc(OC)c1OC` (stereo not drawn), the inhibition was found to be 10.4%.

`CCOC(=O)c1cc(C)n(CC2CCC(C(=O)Nc3cc(OC)cc(OC)c3)CC2)c1C` (stereo not drawn): the inhibition was -4.54%.

As for `O=C(Nc1ccc(Cl)c(-c2nc3cc(Cl)ccc3o2)c1)c1cc2ccccc2o1`, the inhibition was determined as 8.76%.

Consider `Cc1ccccc1NS(=O)(=O)c1nnc(NC(=O)c2ccco2)s1`, for which the inhibition amounted to 13.8%.

As for `CC(=O)N1CCN(c2ccc(S(=O)(=O)N3CCCCC3)cn2)CC1`, the inhibition was active: 37.7%.

Consider `CCOC(=O)c1c(S(=O)(=O)NCC(=O)N(C)c2ccc(C)cc2)c(C)n(C)c1C`, for which the inhibition came out at 24.2%.

As to `Cc1ccccc1-c1nc(SCC(=O)N(C)c2ccccc2)c2c(=O)n(C)c(=O)n(C)c2n1`, the inhibition was -7.42%.

On to `COc1ccc(CCC(=O)NCCc2csc(-c3cccc(C)c3)n2)cc1`, for which the inhibition was -1.11%.

In the case of `Cc1ccc(C)c(CN2C(=O)c3ccccc3S(=O)c3ccc(C(=O)NCCC4=CCCCC4)cc32)c1` (stereo not drawn), the inhibition amounted to 12%.

As for `CCOc1ccc2cc(-c3nnc(Nc4ccc(C)cc4)s3)c(=O)oc2c1`, the inhibition was -3.96%.

For the molecule `Cc1ccccc1OCc1ccc(-c2nc(C#N)c(N3CCC(C(N)=O)CC3)o2)o1`, the inhibition is 22.5%.

In the case of `COc1ccc(/C=C/C(=O)c2ccc(Cl)s2)cc1O`, the inhibition was active: 37.2%.

Regarding `CCOc1ccc2c(c1)c(=O)c(S(=O)(=O)c1ccc(Cl)cc1)cn2Cc1ccccc1C`, the inhibition came to 0.0667%.

With `COc1ccc(Cl)cc1NC(=O)CN(C)C(=O)c1cc2c(s1)CCCC2`, the inhibition is active: 46.4%.

Consider `COc1cccc(Nc2nc3ccc(C(=O)c4ccccc4)cc3n3c(C)nnc23)c1`, for which the inhibition amounted to 7.13%.

In the case of `CC(=O)c1ccc(N2CCN(C(=O)C3CCN(S(=O)(=O)c4c(C)noc4/C=C/c4ccccc4F)CC3)CC2)cc1`, the inhibition was found to be 18.2%.

As to `Cc1cc(C)c(S(=O)(=O)NCCc2csc3nc(-c4ccc(Cl)cc4)nn23)c(C)c1`, the inhibition was found to be 7.56%.

As to `Cc1ccc(NC(=O)c2sc3ncnc(N(C)C4CCCCC4)c3c2C)cc1`, the inhibition is -0.53%.

`O=c1c2c3c(sc2n(Cc2ccc(F)cc2Cl)c(=O)n1-c1ccc(Cl)cc1)CCC3`: the inhibition is -5.09%.

With `Cc1ccc(C)c(N2CCN(c3nc4ccccc4c(=O)n3-c3ccccc3)CC2)c1`, the inhibition amounted to 14.8%.

As for `O=C(O)c1ccccc1S(=O)(=O)Cc1ccccc1`, the inhibition was active: 36.4%.

`CCOc1ccc2nc(N(CCCN(C)C)C(=O)c3ccc(S(=O)(=O)N4CCCC4)cc3)sc2c1`: the inhibition was active: 31.5%.

Take `COc1cc(NC(=O)CC2C(=O)N(c3cccc(C)c3)C(=O)N2Cc2cccs2)cc(OC)c1` (stereo not drawn): the inhibition was 1.17%.

On to `CC(C)Oc1ccc(CNC(=O)Cn2c(-c3cccs3)cc3ccccc32)cc1`, for which the inhibition was -5.64%.

Turning to `Cc1ccc(C(=O)Nc2ccc3[nH]c(=O)c(=O)[nH]c3c2)cc1`, the inhibition is -1.31%.

Turning to `Cc1ccc(C2CCN(C(=O)Nc3ccc(C)c(C)c3)C2)cc1` (stereo not drawn), the inhibition was -8.12%.

`COc1ccc(S(=O)(=O)NC(C)C(=O)N2CCCC2)cc1C` (stereo not drawn): the inhibition is active: 32.4%.

With `COc1cccc(C(=O)Nc2ccc(S(=O)(=O)N(Cc3ccccc3)c3ccccc3)cc2)c1`, the inhibition was -14.7%.

Take `CCS(=O)(=O)N1CCc2cc(C(=O)NCCc3ccc(OC)c(OC)c3)ccc21`: the inhibition is -17.5%.

For `CCc1ccccc1N(C)S(=O)(=O)c1ccc2c(c1)C(C)(C)C(=O)N2C`, the inhibition was -2.14%.

In the case of `Cc1c(C(=O)N(C)C)sc2c1c(=O)n(-c1ccc(F)cc1)c(=O)n2Cc1ccccc1C#N`, the inhibition was -9.68%.

Take `COc1cccc(NC(=O)c2csnn2)c1`: the inhibition was -2.66%.

For `CC(=O)N1CCc2cc(CNC(=O)Nc3ccc(Br)c(C)c3)ccc21`, the inhibition is -18.7%.

On to `Fc1ccc2c(c1)-c1c(cnc3cc(-c4ccc(Cl)cc4)nn13)CO2`, for which the inhibition is -2.42%.

As for `C=Cc1ccc(Cn2ccn(-c3ccc(F)c(F)c3)c(=O)c2=O)cc1`, the inhibition worked out at 21.7%.

Regarding `CC(C)CN(C(=O)c1cccc(S(=O)(=O)N2CCN(c3ccc(F)cc3)CC2)c1)C1CCS(=O)(=O)C1` (stereo not drawn), the inhibition was active: 34.6%.

For `COc1ccc(CCN2C(=O)c3[nH]nc(-c4ccccc4O)c3C2c2ccccc2)cc1` (stereo not drawn), the inhibition came to 8.8%.

Regarding `CCOc1ccc(-c2cc3nc(C4CCN(C(=O)OC(C)(C)C)CC4)c(C(=O)Nc4c(C)cccc4C)cn3n2)cc1`, the inhibition is 21.6%.

As for `Cc1cc(C)c(Cn2c(=O)n(CCCCC(=O)NCc3ccccc3Cl)c(=O)c3ccccc32)c(C)c1`, the inhibition is -10.8%.

Consider `CCC(=O)Nc1ccccc1-c1nc2ccccc2n(C(CC)C(=O)Nc2cccc(Cl)c2)c1=O` (stereo not drawn), for which the inhibition came to 2.06%.

With `COc1ccc(NC(=O)C2=C(C)Nc3ncnn3C2c2ccc[nH]2)cc1` (stereo not drawn), the inhibition is -5.59%.

Take `Cc1cc(NC(=O)Cn2c(=O)oc3cc(S(=O)(=O)N4CCCC4)ccc32)ccc1Br`: the inhibition was -21%.

For the molecule `COc1ccc(CCNC(=O)C2CCCN(S(=O)(=O)c3ccc4c(c3)oc(=O)n4C)C2)cc1OC` (stereo not drawn), the inhibition is 6.06%.

Turning to `O=S(=O)(c1ccccc1)c1nc(-c2cccc(Cl)c2)oc1N1CCOCC1`, the inhibition worked out at 16.8%.

As for `COc1ccc(-c2nc(CSc3nnc(C)n4c3cc3oc(C)cc34)c(C)o2)cc1OC`, the inhibition was determined as 7.79%.

With `CCN(CCCNC(=O)c1ccc(Sc2ccc(Cl)cc2)c(NC(C)=O)c1)c1ccccc1`, the inhibition is -5.89%.

For `CCn1cc2nc(SCc3ccc(F)cc3)n(CCc3ccccc3)c(=O)c2n1`, the inhibition is 2.02%.

For `CCN(CC)S(=O)(=O)c1nnc(NC(=O)c2ccc(Br)cc2)s1`, the inhibition was -3.65%.

Regarding `COc1ccc2cc(CNc3ccc(C)cc3)c(=O)n(CC(=O)Nc3cccc(Cl)c3C)c2c1`, the inhibition was -6.59%.

Turning to `COc1cc(Cl)c(C)cc1NC(=O)c1cnn(-c2ccc(F)cc2F)c1C1CCN(C(=O)OC(C)(C)C)CC1`, the inhibition is 22.5%.

As to `CCOC(=O)c1c(NC(=O)COc2ccccc2Br)sc2c1CCCCC2`, the inhibition was determined as 8.49%.

As for `Cc1ccc(-c2nnc(Nc3ccccc3)c3ccccc23)cc1S(=O)(=O)N1CCN(C)CC1`, the inhibition is -7.11%.

`CC(C)(C)c1ccc(C(=O)N(Cc2ccc(F)cc2)Cc2ccco2)cc1`: the inhibition was 13%.

With `CC(C)c1ccc(N(C(=O)CNC(=O)c2ccco2)C(C(=O)NC2CCCC2)c2ccncc2)cc1` (stereo not drawn), the inhibition was active: 31.4%.

Consider `O=C(Cn1ncc2c(=O)oc3ccccc3c21)N1CCN(c2ccc(Cl)cc2)CC1`, for which the inhibition was found to be 25.2%.

For the molecule `CCc1ccccc1NC(=S)NC1CC2CCCC(C1)N2Cc1cccs1` (stereo not drawn), the inhibition was active: 71.7%.

For the molecule `COc1cccc(CSc2nc(-c3ccccc3F)nc3c2Cc2c(CO)cnc(C)c2O3)c1`, the inhibition stood at 9.15%.

Regarding `COc1ccc(-n2nc3c(N4CCC(C(=O)NCCc5ccccc5)CC4)nnc(C)c3c2C)cc1`, the inhibition came to 8.35%.

`COc1cccc(C(=O)NCCCNC(=O)c2cccnc2)c1`: the inhibition is active: 38.9%.

Regarding `COCCCNC(=O)CCCn1c(=O)c2cccn2c2ccccc21`, the inhibition was 18.7%.
